Assay results from PubChem BioAssay AID687022 (Broad Institute, 2013).
Hit rate of the full screen: of about 1,000 compounds, about 360 (36%) were called active.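 How the source made its calls: active means Fitted curve of melting temperature shift crosses the 1.0 threshold at or below the sample's highest valid tested concentration; inconclusive means Flat fit with activity 30 to 70, or invalid fit; inactive means Opposite direction, flat within 30, or no crossing.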 Most of the strongest results are missing from this list.

These molecules were tested against Fibroblast growth factor 22 (Homo sapiens) (UniProt Q9HCT0) (assay: binders of human FGF22 protein, dose response, FGF22 synaptogenesis inhibitor project, biophysical, thermal shift, cherry-pick (AID 687022; further: reference of the scale not given here)). Settings: recombinant FGF22 thermal shift, SYPRO orange melting; at 38 µM (top of the series) unless noted.
Chain of UniProt Q9HCT0 (Q9HCT0 whole entry, looked up): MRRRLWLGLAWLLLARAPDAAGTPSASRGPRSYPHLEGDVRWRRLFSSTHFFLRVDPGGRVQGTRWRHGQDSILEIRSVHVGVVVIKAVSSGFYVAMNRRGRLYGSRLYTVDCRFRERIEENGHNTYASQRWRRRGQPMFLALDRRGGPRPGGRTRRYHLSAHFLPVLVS

SMILES | Tm shift activity
O=C(COc1cccc(Cl)c1)NCC(c1cccs1)N1CCOCC1 (configuration not stated) | inactive: -0.157%
COc1cc([N+](=O)[O-])ccc1NC(=O)Nc1ccc2c(c1)OCCO2 | inactive: 0.262%
CCN(CCn1cccn1)C(=O)CCc1nnc(Cc2c[nH]c3ccccc23)o1 | inactive: 0.068%
COc1ccc(OC(C)C(=O)N(C)Cc2nc(-c3cccc(C)c3)no2)cc1 (configuration not stated) | inactive: -0.224%
CC1(C(=O)O)CCN1C(=O)c1ccccc1F (configuration not stated) | inactive: -0.171%
O=C(C[C@H]1C[C@H]2c3cc(NC(=O)NC4CCCC4)ccc3O[C@H]2[C@@H](CO)O1)NCCN1CCCCC1 | inactive: -0.018% [at 42 µM]
CC(=O)N(C)C[C@H]1Oc2ncc(C#C[C@H](C)O)cc2C(=O)N([C@@H](C)CO)C[C@@H]1C | inactive: 0.023%
O=C(N[C@@H]1C=C[C@@H](CC(=O)N2CCCCC2)O[C@@H]1CO)c1cccc(F)c1 | inactive: -0.288% [at 42 µM]
CCC(=O)N1[C@H](CO)[C@@H](c2ccccc2)C12CN(C(=O)c1cnccn1)C2 | inactive: -0.156%
CO[C@H]1CN(C)C(=O)c2cc(NS(=O)(=O)c3ccc(C)cc3)ccc2OC[C@@H](C)N(C(=O)NC(C)C)C[C@@H]1C | inactive: -0.312%
O=C(COC(=O)c1ccccc1Br)NCCC1=CCCCC1 | inactive: -0.363%
COc1ccc(S(=O)(=O)Nc2cc3c4c(c2)CCN4C(=O)CC3)cc1OC | inactive: -0.179%
CC(=O)N1[C@@H](CO)[C@@H](c2ccccc2)C12CN(C(=O)c1ccccn1)C2 | inactive: 0.134% [at 42 µM]
Cc1ccccc1-n1ncc2c1CC(C)(C)CC2NC(=O)C1CCC1 (configuration not stated) | inactive: 0.1%
O=S(=O)(Nc1ccccc1OC(F)F)c1ccc(S(=O)(=O)N2CCCC2)cc1 | inactive: -0.024%
CNC(=O)C[C@@H]1CC[C@@H]2[C@H](COc3ccc(NC(=O)c4cccc(F)c4)cc3C(=O)N2C)O1 | inactive: 0.042%
O=C(NC1CCCCC1)c1cc(-c2cccc(Cl)c2)on1 | inactive: -0.21%
COc1ccccc1-c1cccc(-c2nc(C(=O)NCc3ccncc3)cc3c2[C@@H](CCO)N([S@](=O)C(C)(C)C)C3)c1 | inactive: 0.136%
Cc1ccc(S(=O)(=O)NCCSc2nnnn2-c2ccccc2)cc1 | inactive: -0.636%
C/C=C/c1cnc2c(c1)C(=O)N([C@@H](C)CO)C[C@H](C)[C@@H](CN(C)C(=O)c1ccc3c(c1)OCO3)O2 | inactive: 0.061%
Cc1ccc(S(=O)(=O)Nc2ccc3c(c2)C(=O)N([C@@H](C)CO)C[C@H](C)[C@@H](CN(C)CC2CCCCC2)O3)cc1 | inactive: -0.147% [at 42 µM]
Oc1ccc(-c2cnc3ccccc3n2)cc1 | inactive: 0.065%
Cc1cc(C)cc(C(=O)NCC(=O)N2CCN(c3cccc(Cl)c3)CC2)c1 | inactive: -0.367%
COc1ccc(S(=O)(=O)N[C@@H]2C=C[C@H](CC(=O)NCCc3ccccc3)O[C@@H]2CO)cc1 | inactive: 0.685% [at 42 µM]

SMILES | Tm shift activity
CC(C)N(C[C@H]1N[C@H](CO)[C@H]1c1ccccc1)S(=O)(=O)c1ccccc1 | inactive: -0.678% [at 42 µM]
COc1cc(C)c2c(c1C=O)Oc1c(c(C)c(O)c3c1C(O)OC3=O)OC2=O (configuration not stated) | inactive: 0.913% [at 5 µM]
N#C[C@@H]1[C@H](c2ccc(-c3cccnc3)cc2)[C@H](CO)N1C(=O)Nc1ccc(F)cc1 | inactive: -0.106% [at 42 µM]
Cc1ccccc1NCC(=O)N/N=C\C=C\c1cccc([N+](=O)[O-])c1 | inactive: -0.039%
COc1ccc(S(=O)(=O)N/N=c2\oc3c(OC)cccc3cc2S(=O)(=O)c2ccc(C)cc2)cc1OC | inactive: 0.599%
COc1ccc(NC(=O)N(C)C[C@@H]2Oc3ccc(NS(=O)(=O)c4ccc(OC)cc4)cc3CC(=O)N([C@H](C)CO)C[C@@H]2C)cc1 | inactive: 0.038%
Cc1ccc(-c2nnn(CC(=O)NCCc3ccc4c(c3)OCO4)n2)cc1 | inactive: -0.159%
C[C@H](O)C#Cc1ccc2c(c1)O[C@H](CN(C)C(=O)Cc1ccccn1)[C@@H](C)CN([C@H](C)CO)S2(=O)=O | inactive: -0.188%
COCC(=O)Nc1ccc2c(c1)OC[C@@H](C)N(C)C[C@H](C)[C@@H](OC)CN(C)C2=O | inactive: 0.133%
O=C(NCCc1c[nH]c2ccccc12)C(=O)NCC1CCCO1 (configuration not stated) | inactive: -0.006%
COc1cccc(C#Cc2ccc([C@H]3[C@@H](CO)N4C(=O)CN(C(=O)c5ccccc5)C[C@@H]34)cc2)c1 | inactive: -6.85% [at 42 µM]
COc1ccc(NC(=O)N(C)C[C@@H]2Oc3ccc(NC(=O)NC(C)C)cc3CC(=O)N([C@H](C)CO)C[C@@H]2C)cc1 | inactive: 0.066%
C[C@@H]1CCCCO[C@@H](CN(C)Cc2ccncc2)[C@H](C)CN([C@H](C)CO)C(=O)c2cc(NC(=O)Cc3ccccc3)ccc2O1 | inactive: -0.052%
CCCNC(=O)COCc1cc(-c2ccc3c(c2)OCO3)on1 | inactive: 0.027%
COCC(=O)Nc1ccc2c(c1)OC[C@H](C)N(C)C[C@@H](C)[C@@H](OC)CN(C)C2=O | inactive: -0.002% [at 42 µM]
O=c1c(Cl)c(O)c2cccc3c4ccccc4n1c23 | inactive: 0.165% [at 10 µM]
N#C[C@H]1[C@H](c2ccccc2-c2ccccc2F)[C@@H](CO)N1C(=O)C1CCC1 | inactive: -0.309% [at 42 µM]
O=C(Cc1cccnc1)N[C@@H]1CC[C@@H](CCn2cc(-c3ccccc3F)nn2)O[C@@H]1CO | inactive: -0.139%
O=c1cc[nH]c2ccc(Cl)cc12 | inactive: -0.177%
CC(=O)N1[C@H](CO)[C@@H](c2ccccc2)C12CN(C(=O)c1ccccn1)C2 | inactive: -0.114% [at 42 µM]
COc1cc2ccccc2cc1C(=O)OCC(=O)c1c(N)n(C)c(=O)n(C)c1=O | inactive: -0.061%
CC(C)C#Cc1cnc2c(c1)C(=O)N([C@@H](C)CO)C[C@@H](C)[C@@H](CN(C)C(=O)c1cnccn1)O2 | inactive: -0.115% [at 42 µM]
COc1ccc(C(=O)N=c2sc3ccccc3n2C)cc1OC | inactive: 0.139%
O=C(O)C1CSC2(CCN(Cc3ccccc3)CC2)N1 (configuration not stated) | inactive: -0.082%

SMILES | Tm shift activity
CCCNC(=O)N1CC(=O)N2[C@H](C1)[C@@H](c1ccc(-c3cccc(C)c3)cc1)[C@@H]2CO | inactive: -0.204%
CC(C)N(Cc1ccccc1)C(=O)COC(=O)C1CCN(c2ccc(C(F)(F)F)cn2)CC1 | inactive: 0.133%
O=C(NC1CCCCC1)N1CC(=O)N2[C@H](CO)[C@H](c3ccc(-c4cccc(F)c4)cc3)[C@H]2C1 | inactive: -1.26% [at 42 µM]
CO[C@H]1CN(C)C(=O)c2cc(NC(=O)c3cccc(F)c3)ccc2OC[C@H](C)NC[C@@H]1C | inactive: -0.133%
COCC(=O)N1CC2(C1)[C@H](c1ccc(-c3cccc(C)c3)cc1)[C@H](CO)N2C(=O)C1CC1 | inactive: -0.472% [at 42 µM]
O=C1C=CCCN1S(=O)(=O)/C=C/c1ccccc1 | inactive: 0.169%
N#CCC(=O)Nc1ccc(C(=O)NCCc2c[nH]c3ccccc23)cc1 | inactive: -0.09% [at 10 µM]
O=C(Nc1ccccc1)Nc1ccc2nnsc2c1 | inactive: -0.368%
O=C(c1cccc(NC2=NC3CS(=O)(=O)CC3S2)c1)N1CCN(c2ncccn2)CC1 (configuration not stated) | inactive: -0.069%
O=C(c1ccc2c(c1)OCO2)N1CC(=O)N2[C@H](C1)[C@H](c1ccc(C#CCC3CCCC3)cc1)[C@@H]2CO | inactive: 0.635%
O=C1Cc2ccccc2C(=O)N1c1cccc(Cl)c1 | inactive: 0.062%
NS(=O)(=O)c1cccc(NC(=O)c2ccc(NS(=O)(=O)c3cccc([N+](=O)[O-])c3)cc2)c1 | inactive: -0.109%
Cc1ccc(S(=O)(=O)N[C@H]2C=C[C@H](CC(=O)N3CCc4ccccc4C3)O[C@H]2CO)cc1 | inactive: -0.014% [at 42 µM]
O=C(N/N=C/c1ccc(-c2cccc([N+](=O)[O-])c2)o1)c1ccc([N+](=O)[O-])cc1 | inactive: 0.08%
COc1ccccc1-c1ccc2n(c1=O)C[C@@H]1[C@@H](CO)[C@H](C(=O)NC3CCC3)N(C(=O)NC(C)C)[C@H]21 | inactive: 0.104% [at 19.5 µM]
Nc1c(N(CCO)C(=O)COc2ccc(Cl)cc2)c(=O)[nH]c(=O)n1Cc1ccccc1 | inactive: -0.221%
Cc1ccc(-c2ccc([C@H]3[C@@H](CO)N4C(=O)CN(C(=O)c5ccc(F)cc5)C[C@@H]34)cc2)cc1 | inactive: -2.35%
COc1nc(-c2ccc(Cl)cc2)nnc1C | inactive: -0.19%
CC(C)C#Cc1cnc2c(c1)C(=O)N([C@@H](C)CO)C[C@H](C)[C@@H](CN(C)C(=O)c1cnccn1)O2 | inactive: -0.02% [at 42 µM]
Cc1c(/C=N\NC(=O)c2cccc(F)c2)cnn1C | inactive: -0.081%
C[C@@H]1CN([C@@H](C)CO)C(=O)c2cccc(NC(=O)C3CC3)c2O[C@H]1CN(C)Cc1ccncc1 | inactive: 0.078%
O=C(C[C@H]1CC[C@H](NC(=O)Nc2cc(F)ccc2F)[C@@H](CO)O1)Nc1ccc(-c2ccccc2)cc1 | inactive: 0.009% [at 42 µM]
N#CCc1nn(-c2ccccc2)c2ncnc(N)c12 | inactive: -0.125%
COCC(=O)N1C[C@@H](C)[C@H](OC)CN(C)C(=O)c2ccc(NC(=O)NC(C)C)cc2OC[C@@H]1C | inactive: 0.42% [at 42 µM]
